Results from the BET-seq Pho4 binding data (Le et al. 2018).
The other results are listed elsewhere or left out. The energies were worked out here from pooled read counts, against the library average; single values are noisy.

Each sequence was assayed against T1, Pho4 (S. cerevisiae) (UniProt P07270) (assay: relative binding free energy (BET-seq); higher = weaker binding). Details: reference: library average.
T1 sequence: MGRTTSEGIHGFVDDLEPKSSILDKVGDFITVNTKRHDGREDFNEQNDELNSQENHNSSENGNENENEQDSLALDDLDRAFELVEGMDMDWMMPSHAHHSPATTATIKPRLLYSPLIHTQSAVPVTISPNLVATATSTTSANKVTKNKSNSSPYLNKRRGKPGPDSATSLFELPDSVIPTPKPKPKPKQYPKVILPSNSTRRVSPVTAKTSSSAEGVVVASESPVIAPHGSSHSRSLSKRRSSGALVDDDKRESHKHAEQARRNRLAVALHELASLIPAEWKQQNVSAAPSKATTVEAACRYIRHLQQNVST
For ATTAACACGTGGGGGT, the “relative binding free energy” value was -0.22 kcal/mol.
With TTAGGCACGTGATGTG the “relative binding free energy” value was -0.05 kcal/mol.
In the case of TATATCACGTGGTATG, the “relative binding free energy” value is reported as 0.07 kcal/mol.
GTCAACACGTGTGGGT was tested, and the “relative binding free energy” value was 0.08 kcal/mol.
TTGTTCACGTGAGTGA was tested, and the “relative binding free energy” value was 0.34 kcal/mol.
For TTGGGCACGTGGCGCT, the “relative binding free energy” value was -0.17 kcal/mol.
CAGGGCACGTGTGGGG was tested, and the “relative binding free energy” value was -0.12 kcal/mol.
With GTGGTCACGTGCACGT the “relative binding free energy” value was 0 kcal/mol.
In the case of CTTATCACGTGGGTGT, the “relative binding free energy” value is reported as 0.05 kcal/mol.
For CAGGGCACGTGCGGGC, the “relative binding free energy” value was -0.13 kcal/mol.
In the case of GTTGTCACGTGCGCTT, the “relative binding free energy” value is reported as 0.08 kcal/mol.
For GCGGTCACGTGTAGGG, the “relative binding free energy” value was 0.17 kcal/mol.
For TTTCTCACGTGGGTTG, the “relative binding free energy” value was 0.15 kcal/mol.
With TATTGCACGTGAGTGA the “relative binding free energy” value was 0.06 kcal/mol.
With GTGGCCACGTGATGGT the “relative binding free energy” value was 0.14 kcal/mol.
For TTGATCACGTGGAATT, the “relative binding free energy” value was 0.27 kcal/mol.
With AGGGACACGTGAGCGG the “relative binding free energy” value was 0.17 kcal/mol.
For TTGTTCACGTGCGTGC, the “relative binding free energy” value was 0.19 kcal/mol.
With TTCAACACGTGTGGGT the “relative binding free energy” value was -0.05 kcal/mol.
For TGGTACACGTGCGGCG, the “relative binding free energy” value was -0.14 kcal/mol.
With AGTGGCACGTGTGGTC the “relative binding free energy” value was 0.04 kcal/mol.
With TAGATCACGTGTACGG the “relative binding free energy” value was 0.16 kcal/mol.
TATTGCACGTGTGGCT was tested, and the “relative binding free energy” value was -0.03 kcal/mol.
For TGAGTCACGTGCAATG, the “relative binding free energy” value was 0.2 kcal/mol.
With TACGGCACGTGGGGGC the “relative binding free energy” value was -0.23 kcal/mol.
With TGGGACACGTGCGAGG the “relative binding free energy” value was -0.01 kcal/mol.
AATAGCACGTGGGTGG was tested, and the “relative binding free energy” value was -0.24 kcal/mol.
AGGTTCACGTGATCGT was tested, and the “relative binding free energy” value was 0.36 kcal/mol.
With TTTGGCACGTGTGAGG the “relative binding free energy” value was 0 kcal/mol.
In the case of AGTAGCACGTGAGGCA, the “relative binding free energy” value is reported as 0.37 kcal/mol.
TGTTGCACGTGAGTGC was tested, and the “relative binding free energy” value was 0.2 kcal/mol.
For GCGGGCACGTGGTGCG, the “relative binding free energy” value was -0.19 kcal/mol.
In the case of TTCTTCACGTGCGGGA, the “relative binding free energy” value is reported as 0.27 kcal/mol.
GGGATCACGTGCGGGG was tested, and the “relative binding free energy” value was 0.07 kcal/mol.
With GTGGTCACGTGAATAG the “relative binding free energy” value was 0.33 kcal/mol.
GTAAGCACGTGGGGAT was tested, and the “relative binding free energy” value was -0.27 kcal/mol.
In the case of ATGTTCACGTGGTCGT, the “relative binding free energy” value is reported as 0.24 kcal/mol.
For GGGCTCACGTGATTGG, the “relative binding free energy” value was 0.33 kcal/mol.
GACTTCACGTGTTGTT was tested, and the “relative binding free energy” value was 0.42 kcal/mol.
For CAAGGCACGTGGGATT, the “relative binding free energy” value was -0.12 kcal/mol.
For TGGGTCACGTGCGATT, the “relative binding free energy” value was 0.11 kcal/mol.
AGGGGCACGTGCAGTT was tested, and the “relative binding free energy” value was -0.25 kcal/mol.
For AAAGGCACGTGGTTTG, the “relative binding free energy” value was -0.19 kcal/mol.
In the case of TCGCGCACGTGGGAGT, the “relative binding free energy” value is reported as -0.27 kcal/mol.
With ATTCTCACGTGCGTTG the “relative binding free energy” value was 0.28 kcal/mol.
For AAAGGCACGTGGTGTG, the “relative binding free energy” value was -0.24 kcal/mol.
TGGATCACGTGGCGCG was tested, and the “relative binding free energy” value was 0.11 kcal/mol.
With GGAGTCACGTGATAGG the “relative binding free energy” value was 0.29 kcal/mol.
For CTTGGCACGTGGTAAG, the “relative binding free energy” value was -0.11 kcal/mol.
For GGTGTCACGTGGCTCG, the “relative binding free energy” value was 0.08 kcal/mol.
In the case of ATATTCACGTGAGTAT, the “relative binding free energy” value is reported as 0.24 kcal/mol.
GCGAGCACGTGGGATG was tested, and the “relative binding free energy” value was -0.19 kcal/mol.
In the case of TCGGGCACGTGATGTG, the “relative binding free energy” value is reported as 0.07 kcal/mol.
For TGGAACACGTGCGGTT, the “relative binding free energy” value was 0.01 kcal/mol.
With TAGGTCACGTGTGCGA the “relative binding free energy” value was 0.08 kcal/mol.
For TTTAGCACGTGGTAAC, the “relative binding free energy” value was 0.02 kcal/mol.
CGGCACACGTGGTGAG was tested, and the “relative binding free energy” value was 0.07 kcal/mol.
With GAGTACACGTGGTGAG the “relative binding free energy” value was 0.11 kcal/mol.
In the case of TCTTCCACGTGGTGGG, the “relative binding free energy” value is reported as 0.02 kcal/mol.
In the case of TAGGTCACGTGTAAAT, the “relative binding free energy” value is reported as 0.16 kcal/mol.
With AGGAGCACGTGTATTG the “relative binding free energy” value was -0.14 kcal/mol.
In the case of TTGGGCACGTGCTACG, the “relative binding free energy” value is reported as -0.23 kcal/mol.
For GTTGGCACGTGCTAGG, the “relative binding free energy” value was -0.17 kcal/mol.
For AGCTTCACGTGGGGAG, the “relative binding free energy” value was 0.24 kcal/mol.
With TTTAACACGTGAGTTC the “relative binding free energy” value was 0.34 kcal/mol.
In the case of CGGTACACGTGAAGTT, the “relative binding free energy” value is reported as 0.54 kcal/mol.
In the case of AGGTCCACGTGAGTTA, the “relative binding free energy” value is reported as 0.24 kcal/mol.
GATTTCACGTGATTTG was tested, and the “relative binding free energy” value was 0.49 kcal/mol.
In the case of TGAGTCACGTGAGGCA, the “relative binding free energy” value is reported as 0.22 kcal/mol.
With GTCTGCACGTGGTTTT the “relative binding free energy” value was 0.14 kcal/mol.
For TCATTCACGTGATAGG, the “relative binding free energy” value was 0.34 kcal/mol.
In the case of GTGGTCACGTGTTTGC, the “relative binding free energy” value is reported as 0.22 kcal/mol.
TGCTCCACGTGTTTTT was tested, and the “relative binding free energy” value was 0.11 kcal/mol.
For TGAATCACGTGTGCTT, the “relative binding free energy” value was 0.14 kcal/mol.
In the case of ATGGTCACGTGTCGTC, the “relative binding free energy” value is reported as 0.17 kcal/mol.
With ATTGTCACGTGCGTTT the “relative binding free energy” value was -0.1 kcal/mol.
For TTTTACACGTGTAGTG, the “relative binding free energy” value was 0.08 kcal/mol.
With GTGAGCACGTGCAGGT the “relative binding free energy” value was -0.14 kcal/mol.
ATCATCACGTGAGGTT was tested, and the “relative binding free energy” value was 0.33 kcal/mol.
GTCTTCACGTGGGAGT was tested, and the “relative binding free energy” value was 0.31 kcal/mol.
In the case of GTTGACACGTGTAATG, the “relative binding free energy” value is reported as 0.24 kcal/mol.
CTGTTCACGTGGTTGG was tested, and the “relative binding free energy” value was 0.19 kcal/mol.
TTAGTCACGTGATATG was tested, and the “relative binding free energy” value was 0.23 kcal/mol.
AGTGACACGTGATCGT was tested, and the “relative binding free energy” value was 0.05 kcal/mol.
In the case of CAGATCACGTGTAGGT, the “relative binding free energy” value is reported as 0.11 kcal/mol.
With TGTCTCACGTGGTGTG the “relative binding free energy” value was 0.18 kcal/mol.
In the case of GTGGACACGTGTTTTG, the “relative binding free energy” value is reported as 0.05 kcal/mol.
TGGAGCACGTGGGATT was tested, and the “relative binding free energy” value was -0.05 kcal/mol.
With GCAAGCACGTGGGGTT the “relative binding free energy” value was -0.09 kcal/mol.
TGGTTCACGTGGCGTG was tested, and the “relative binding free energy” value was 0.27 kcal/mol.
TGGTGCACGTGGTAAA was tested, and the “relative binding free energy” value was -0.09 kcal/mol.
With ACGCTCACGTGTTGGG the “relative binding free energy” value was 0.34 kcal/mol.
In the case of TGTCGCACGTGGAAGT, the “relative binding free energy” value is reported as 0.03 kcal/mol.
In the case of GTCCGCACGTGGGTGT, the “relative binding free energy” value is reported as -0.11 kcal/mol.
In the case of TGGAGCACGTGGTGTA, the “relative binding free energy” value is reported as -0.08 kcal/mol.
In the case of TGTTCCACGTGGGTTG, the “relative binding free energy” value is reported as -0.11 kcal/mol.
For TAGTCCACGTGGGCTG, the “relative binding free energy” value was -0.07 kcal/mol.
For AGTCTCACGTGTTTGA, the “relative binding free energy” value was 0.29 kcal/mol.
With TTAAACACGTGGGTGA the “relative binding free energy” value was -0.14 kcal/mol.
With TTTGTCACGTGCGTCT the “relative binding free energy” value was 0.09 kcal/mol.
With AGTAACACGTGGGGTG the “relative binding free energy” value was -0.13 kcal/mol.
With TGTTACACGTGAATTA the “relative binding free energy” value was 0.41 kcal/mol.
AGTTTCACGTGTTTGC was tested, and the “relative binding free energy” value was 0.17 kcal/mol.
For TGGTACACGTGAGCTT, the “relative binding free energy” value was 0.23 kcal/mol.
For TTTTGCACGTGAAAGG, the “relative binding free energy” value was 0.17 kcal/mol.
With GTATGCACGTGATCTG the “relative binding free energy” value was 0.02 kcal/mol.
For GTTGTCACGTGTTGGC, the “relative binding free energy” value was 0.2 kcal/mol.
In the case of TGTTTCACGTGCGTTC, the “relative binding free energy” value is reported as 0.12 kcal/mol.
For GAGGTCACGTGGGTGG, the “relative binding free energy” value was 0.03 kcal/mol.
For TTGGCCACGTGAAATT, the “relative binding free energy” value was 0.39 kcal/mol.
In the case of GTAGTCACGTGGATTT, the “relative binding free energy” value is reported as 0.25 kcal/mol.
With ATCGGCACGTGGTTGT the “relative binding free energy” value was -0.11 kcal/mol.
In the case of TTTGTCACGTGGGTAG, the “relative binding free energy” value is reported as 0.01 kcal/mol.
For TGAAGCACGTGTTGTG, the “relative binding free energy” value was -0.11 kcal/mol.
For TGGTCCACGTGTAGGG, the “relative binding free energy” value was -0.01 kcal/mol.
